From PubChem BioAssay AID360 (National Center for Advancing Translational Sciences (NCATS), 2006)
The whole screen tested about 48,000 compounds, of which about 550 (1.1%) were called active. Not shown: some 4% with an inconclusive outcome. Cut-off read from the data, not from the text of the source: active = potency below about 15 µM; inconclusive = mostly about 16 µM to 33 µM; inactive = weaker than that. The list shows a part of the results.

Target: Lysosomal acid glucosylceramidase (Homo sapiens) (UniProt P04062)
Assay: Glucocerebrosidase;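 note: the screen sought inhibitors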
Settings: purified enzyme, resorufin glucoside fluorescence (screen aimed at inhibitors), 20 min
Procedure, shortened: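 Normal human glucocerebrosidase (0.2 nM final) was assayed with resorufin β-D-glucopyranoside (30 uM final) in 50mM citric acid/KH2PO4, 10mM sodium taurocholate, 0.01% tween-20, pH 5.9. Compounds were titrated; fluorescence (Ex 548, Em 600) read after 20 min at RT.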
Potency is the fitted concentration of half-maximal effect.

Chain of UniProt P04062 (P04062 whole entry, looked up): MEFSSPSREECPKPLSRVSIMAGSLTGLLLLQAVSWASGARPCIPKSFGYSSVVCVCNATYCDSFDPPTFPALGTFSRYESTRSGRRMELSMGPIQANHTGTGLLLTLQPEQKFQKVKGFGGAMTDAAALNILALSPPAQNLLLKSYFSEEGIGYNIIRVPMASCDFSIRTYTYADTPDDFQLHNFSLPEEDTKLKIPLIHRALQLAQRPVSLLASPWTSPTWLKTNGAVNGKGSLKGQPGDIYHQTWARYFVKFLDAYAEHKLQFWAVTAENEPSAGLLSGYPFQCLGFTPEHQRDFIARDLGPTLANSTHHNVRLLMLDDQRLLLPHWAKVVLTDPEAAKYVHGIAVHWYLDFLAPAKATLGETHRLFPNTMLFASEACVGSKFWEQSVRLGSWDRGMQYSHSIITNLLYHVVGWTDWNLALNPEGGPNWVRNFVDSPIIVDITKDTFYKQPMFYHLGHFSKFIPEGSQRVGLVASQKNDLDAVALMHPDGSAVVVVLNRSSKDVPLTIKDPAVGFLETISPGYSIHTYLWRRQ

Potency, inactive:
O=C(NCN1CCc2ccccc2C1)c1cnccn1 > 76.9 µM
O=C(N1CCOCC1)N(Cc1ccccc1)c1ccccn1 > 76.9 µM
COC(=O)C1CCN(c2cc(=O)n(-c3ccccc3Cl)c(=O)[nH]2)CC1 > 76.9 µM
COc1ccc(CCN(Cc2cc3cccc(C)c3[nH]c2=O)C(=O)N2CCCC2)cc1OC > 76.9 µM
Cc1ccc(SCCC(=O)N2CCC(C(N)=O)CC2)cc1 > 76.9 µM
CCC(=O)Nc1cccc(NC(=O)CSc2nnnn2Cc2ccccc2)c1
COc1ccc(C2C(C#N)=C(/N=C/N3CCN(C)CC3)OC3=C2C(=O)CC(C)(C)C3)cc1OC (stereo not given) > 76.9 µM
O=C(C1CCC1)N1CCc2cc(S(=O)(=O)Nc3ccc4c(c3)OCO4)ccc21 > 76.9 µM
CC(C)c1ccc(OCC(=O)NCc2ccco2)cc1 > 76.9 µM
COc1ccc(CCNc2c(N)n(Cc3ccccc3)c(=O)[nH]c2=O)cc1OC > 76.9 µM
Cc1ccc(-n2ncc3c(NCc4ccccn4)ncnc32)c(C)c1 > 76.9 µM
COc1ccc(NC(=O)CS(=O)CC(=O)NC2CCCc3ccccc32)cc1 (stereo not given) > 76.9 µM
O=C(Nc1nnc(-c2ccco2)s1)C1CCN(S(=O)(=O)c2ccc(Cl)cc2)CC1 > 76.9 µM
c1ccc(CCn2nnnc2C(c2cccnc2)N2CCN(c3ccccc3)CC2)cc1 (stereo not given) > 76.9 µM
COC(=O)c1ccc(Oc2cc(C)nc(SC)n2)cc1 > 76.9 µM
O=C(NCc1cccnc1)C1CCCN(S(=O)(=O)c2ccc(Br)cc2)C1 (stereo not given) > 76.9 µM
Cc1ccc(CCNS(=O)(=O)c2cnc[nH]2)cc1 > 76.9 µM
O=C(CSc1nc2ccccc2s1)Nc1ncccn1 > 76.9 µM
C=CCn1c(SCc2nc3ccccc3[nH]2)nnc1-c1ccccn1 > 76.9 µM
CS(=O)(=O)N(CC(=O)NCCSC1CCCCC1)c1ccc2c(c1)OCO2 > 76.9 µM
O=C(CNCc1ccco1)Nc1ccccc1-n1cccc1 > 76.9 µM
CCn1c(COc2ccc(C)cc2)nnc1SCC(=O)Nc1ccc2c(c1)OCCO2 > 76.9 µM
Cc1cc(C)cc(N2CCCn3c2nc2c3c(=O)n(CC(=O)OCc3ccccc3)c(=O)n2C)c1 > 76.9 µM
CC(CNC(=O)c1cncc(O)c1)NC(=O)c1cncc(O)c1 (stereo not given) > 76.9 µM
CSc1nc(SCC(=O)NCc2ccco2)c2c3c(sc2n1)CN(C)CC3 > 76.9 µM
